Publication PMC4336329 (PLoS ONE, 2015)
Among all 310,000 compounds or so, about 2,200 (0.71%) showed an effect of 50% or more. Effects have a minus sign here. This is one part of the list.

Each molecule was assayed against human ether-à-go-go-related gene (hERG) potassium channel (human, UniProt Q12809) (assay: primary screen, population patch clamp on CHO cells stably expressing hERG).
Chain of human ether-à-go-go-related gene (hERG) potassium channel (Q12809 whole entry, looked up): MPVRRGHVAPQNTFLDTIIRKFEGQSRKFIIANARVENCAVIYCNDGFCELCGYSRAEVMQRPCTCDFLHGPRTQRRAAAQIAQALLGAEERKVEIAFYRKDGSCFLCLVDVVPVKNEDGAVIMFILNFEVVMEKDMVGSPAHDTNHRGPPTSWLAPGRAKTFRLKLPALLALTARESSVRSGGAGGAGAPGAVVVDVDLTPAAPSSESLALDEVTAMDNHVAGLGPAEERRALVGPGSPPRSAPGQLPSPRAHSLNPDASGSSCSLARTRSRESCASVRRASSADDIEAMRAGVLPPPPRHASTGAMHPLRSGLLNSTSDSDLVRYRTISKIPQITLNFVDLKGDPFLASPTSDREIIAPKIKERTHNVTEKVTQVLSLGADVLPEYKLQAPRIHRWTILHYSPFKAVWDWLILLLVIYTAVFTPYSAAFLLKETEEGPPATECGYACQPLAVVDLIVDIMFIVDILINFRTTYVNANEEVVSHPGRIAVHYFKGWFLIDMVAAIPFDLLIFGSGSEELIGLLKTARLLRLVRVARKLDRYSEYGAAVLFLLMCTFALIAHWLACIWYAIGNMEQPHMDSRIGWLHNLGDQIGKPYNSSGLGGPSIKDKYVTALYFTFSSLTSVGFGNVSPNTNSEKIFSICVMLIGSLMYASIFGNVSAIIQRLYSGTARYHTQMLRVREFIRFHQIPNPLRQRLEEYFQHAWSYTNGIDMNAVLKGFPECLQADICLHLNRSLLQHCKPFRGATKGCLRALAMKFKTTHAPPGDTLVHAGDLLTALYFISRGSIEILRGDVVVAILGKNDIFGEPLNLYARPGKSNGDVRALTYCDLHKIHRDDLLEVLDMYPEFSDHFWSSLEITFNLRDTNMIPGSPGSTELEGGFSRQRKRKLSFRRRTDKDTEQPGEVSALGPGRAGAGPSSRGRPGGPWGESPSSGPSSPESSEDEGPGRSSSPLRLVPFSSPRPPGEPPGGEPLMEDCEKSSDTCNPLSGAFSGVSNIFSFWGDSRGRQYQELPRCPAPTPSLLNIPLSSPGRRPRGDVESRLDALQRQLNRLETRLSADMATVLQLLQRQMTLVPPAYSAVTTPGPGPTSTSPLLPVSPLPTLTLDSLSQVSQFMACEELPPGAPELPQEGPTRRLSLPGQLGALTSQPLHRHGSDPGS

Row | Structure (SMILES) | hERG current change (%, negative = inhibition) at 1uM [%]
1 | CCCCCn1c(CCC(=O)Oc2ccccc2OC)nc2c1c(=O)[nH]c(=O)n2CCCC | 2.3
2 | O=C(N1CCCCCC1)N1CCN(S(=O)(=O)c2ccccc2)CC1 | -6.18
3 | CC(C)CC(=O)Nc1ccc(C(=O)CN2C(=O)NC3(CCOc4ccccc43)C2=O)cc1 (stereo not shown) | 11.6
4 | N#C/C(C(=O)Oc1ccccc1)=C1\C=Cc2ccccc2N1 | 10.5
5 | Cc1ccc2[nH]c(=O)c(CN(Cc3nnnn3C3CCCC3)C3CCCCC3)cc2c1 | 6.38
6 | CCn1cc2nc(SCC(=O)Nc3ccc(OC)cc3OC)n(Cc3ccc(OC)cc3)c(=O)c2n1 | 7.03
7 | C=CCOc1c2ccc(C(=O)NCc3ccccc3OC)cc2nn1C | 10.4
8 | CCOc1ccc(NC(=O)CCCc2cc(-c3ccc(OCC)cc3)on2)cc1 | 14.6
9 | CC(=O)c1cccc(NC(=O)C(OC(=O)c2cccs2)c2ccccc2)c1 (stereo not shown) | 2.37
10 | Cc1ccc2nc(SCC(=O)N3CCN(C(=O)c4ccco4)CC3)[nH]c2c1 | -10.5
11 | COc1ccc(OC)c(C(c2nnnn2Cc2ccccc2)N2CCN(C)CC2)c1.Cl (stereo not shown) | 14.2
12 | CCCCSc1nc(C(=O)O)cc(=O)[nH]1 | -0.661
13 | COC(=O)c1cc(C(=O)OC)n(Cc2ccc(F)cc2)c1C | 9.25
14 | COc1cccc(C2NC(=O)NC(C)=C2C(=O)OCCSC)c1OC (stereo not shown) | 6.85
15 | CC1CCc2c(sc(NC(=O)c3ccc(Cn4cc([N+](=O)[O-])cn4)o3)c2C#N)C1 (stereo not shown) | 10.1
16 | CCCCc1nc2n[nH]c(N)c2c2c1CCCC2 | 6.58
17 | CN1CCN(C(=O)C23CC4CC(C)(CC(C)(C4)C2)C3)CC1.Cl | 13.4
18 | CC1(C)CC(=O)C/C(=N\NC(=O)C2C3CCCCC32)C1 (stereo not shown) | 20.2
19 | COCCCNC(=O)c1ccc(-n2nc(C(F)(F)F)cc2-c2cccs2)cc1 | 2.67
20 | CN(C)N1C(N)=C(C#N)C(c2cccnc2)C2=C1CC(C)(C)CC2=O (stereo not shown) | 6.15
21 | Cc1ccc(-c2nc(C(=O)NCCCN(C)C)cc3c2[nH]c2ccccc23)cc1 | 1.93
22 | O=C(Cc1ccc(-n2c(=O)c3ccccc3n(CC(=O)Nc3ccc(F)cc3F)c2=O)cc1)NCc1ccco1 | 17.1

Row | Structure (SMILES) | hERG current change (%, negative = inhibition) at 1uM [%]
23 | Nc1nnc(SCC(=O)Nc2ccccc2N2CCOCC2)s1 | 9.59
24 | Cc1ccc(OCCC(=O)Nc2ccc(S(=O)(=O)Nc3nccs3)cc2)cc1 | 16.5
25 | COc1ccccc1CCC(=O)Nc1ccc2c(c1)CN(Cc1ccc(CO)o1)CC2 | 14.7
26 | CC1(C)Cc2c(C#N)c(N3CCN(C(=O)c4ccco4)CC3)nc(Cc3ccccc3)c2CO1 | -0.232
27 | CC(=O)N=Nc1[nH]c(N)c2ccccc12 | 14.4
28 | CCCS(=O)(=O)N1CCN=C1SCc1ccc(C)cc1 | 2.13
29 | CCOc1ccc(-n2c(C)c(C(=O)O)c3cc(OC)ccc32)cc1 | 19.6
30 | Cc1cc(NC(=O)COc2ccccc2)ccc1Cl | 6.17
31 | CCOc1ccccc1Nc1ncnc2ccccc12.Cl | -9.83
32 | O=c1[nH]c(SCc2ccc(Cl)cc2)nc2ccccc12 | 10.7
33 | CCOC(=O)c1ccc(NC(=O)CSc2n[nH]c(-c3ccncc3)n2)cc1 | 8.2
34 | NC(=O)C1CC12c1ccccc1-c1ccccc12 (stereo not shown) | 11.1
35 | Cc1ccc(NS(=O)(=O)c2cc(C(=O)N3CCN(C)CC3)ccc2C)cc1 | -5.33
36 | CN1CCC(N(C)C(=S)Nc2ccc(SC(F)F)cc2)CC1 | -34.3
37 | O=C(c1cc(COc2c(F)cccc2F)on1)N1CCN(C2CCCCC2)C(=O)C1 | 9.96
38 | NC[C@H]1O[C@H](O[C@H]2[C@H](O)[C@@H](O[C@H]3O[C@H](CO)[C@@H](O)[C@H](N)[C@H]3O)[C@H](N)C[C@@H]2N)[C@H](N)C[C@@H]1O.O=S(=O)(O)O | 8.63
39 | Cc1cc(C)cc(OCCNS(=O)(=O)c2cccs2)c1 | 36.6
40 | CSc1cccc(NC(=O)c2cc(S(=O)(=O)N3CCc4ccccc43)cn2C)c1 | -1.68
41 | COc1ccc(C(=O)NNC(=S)NC2CCCCC2)cc1OC | 14.8
42 | O=C(CSCc1c(Cl)cccc1Cl)NCc1ccco1 | 5.36
43 | COc1ccc2c(C)cc(=O)[nH]c2c1 | -1.82
44 | C=CCn1c(=O)[nH]c2cc(C(=O)N3CC=C(c4ccccc4)CC3)ccc2c1=O | 14.2

Row | Structure (SMILES) | hERG current change (%, negative = inhibition) at 1uM [%]
45 | Cc1ccccc1C(=O)N1CCN(c2ccc(NC(=O)c3ccco3)cc2Cl)CC1 | -3.61
46 | COCCCn1c(C)nnc1SCC(=O)Nc1cccc(C)c1 | 9.29
47 | CC(NC(=O)COC(=O)C1(C)CC1(Cl)Cl)c1ccccc1 (stereo not shown) | -1.29
48 | C=CCN(c1ccccc1Cl)S(=O)(=O)c1cccc(C(=O)OCC(=O)N(C)C2CCS(=O)(=O)C2)c1 (stereo not shown) | 9.58
49 | CCCCCCn1c(=O)c(-c2ccccc2)c(O)c2ccccc21 | -5.95
50 | Cc1ccc(-n2nc3c(=O)n(CCCC(=O)NCCc4ccccc4C)nc(C)c3c2C)cc1 | 9.46
51 | CCC(=O)Nc1cccc(-c2ccc(N3CCC(C)CC3)nn2)c1 | 12.1
52 | CC1CN(C(=O)c2nn(C)cc2[N+](=O)[O-])CC(C)O1 (stereo not shown) | 9.15
53 | Oc1ccc(/C=N/N=C/c2ccc(O)c(O)c2)cc1O | 14.2
54 | COc1cc(NC(=O)CCCl)cc(-n2cnnn2)c1 | 5.72
55 | Cc1noc(C)c1CCC(=O)N1CCCC(CCC(=O)NCc2ccc(F)c(F)c2)C1 (stereo not shown) | -11.7
56 | C/C(=N\Nc1ccc([N+](=O)[O-])cc1)c1ccco1 | 10.8
57 | COCCCNc1nc(-c2ccc(Cl)cc2)nc2ccccc12 | 7.26
58 | O=C(c1ccco1)N1CCN(C(=O)C2CC(c3ccc(Cl)cc3)=NO2)CC1 (stereo not shown) | -66.5
59 | CCCCn1c(=O)c(CCC(=O)OCC(=O)NC(C)c2ccccc2)nc2ccccc21 (stereo not shown) | 8.54
60 | Cc1ccc(S(=O)(=O)N2[C@@H](c3ccccc3F)C(C(=O)O)=CC[C@H]2c2cccc(Cl)c2)cc1 | 13.1
61 | Cc1nc(-n2nnc3ccccc32)c2c3c(sc2n1)CCCC3 | -0.0299
62 | CCOC(=O)C1=NN(c2ccc(Cl)cc2)/C(=C/C2=NCCc3cc(OC)c(OC)cc32)S1 | 10.6
63 | COc1ccc2c(c1)c1nc3n(c(=O)c1n2CC(=O)Nc1cc(C)[nH]n1)CCS3 | 10.2
64 | Cc1ccccc1C(=O)NNC(=O)C12CC3CC(CC(C3)C1)C2 | 4.29
65 | C#CC(C)(CC)NC(=O)c1cc2cccc(CC=C)c2oc1=O (stereo not shown) | 12.6
66 | O=C(C1CC=CCC1)N1CCC(CO)(Cc2ccc(Cl)cc2)CC1 (stereo not shown) | 5.11

Row | Structure (SMILES) | hERG current change (%, negative = inhibition) at 1uM [%]
67 | Cc1nccn1C(c1ccccc1)c1ccccc1.O=C(O)C(=O)O | 3.31
68 | CCN(CC)S(=O)(=O)c1ccc(NCCCn2ccnc2)c([N+](=O)[O-])c1 | -7.58
69 | Cc1ccccc1CC1(CO)CCCN(C(=O)c2ccc(F)cc2)C1 (stereo not shown) | 8.9
70 | COc1cccc(NC(=O)CSc2nc(C3CC3)nc3ccccc23)c1 | 10.1
71 | Oc1c(C(Nc2nc3ccccc3s2)c2ccco2)ccc2cccnc12 (stereo not shown) | 13
72 | Cc1cccc(C(=O)Oc2c(Br)cc(Br)cc2/C=N/NC(=O)c2ccncc2)c1 | 4.15
73 | Cc1ccc(C2(c3noc(CN(C)CCO)n3)CCCC2)cc1 | 7.5
74 | CCN(CC)CCNC(=O)c1ccc(NC(=O)c2ccc3c(c2)CCC3)cc1 | -4.95
75 | CCCCNc1c(C(=O)OCC)c(=O)[nH]c2ccccc12 | 4.5
76 | CCOC(=O)COc1ccc(Br)cc1/C=C1\SC(N)=NC1=O | 10.4
77 | Clc1cccc(CSc2nnc(-c3sccc3-n3cccc3)o2)c1 | 5.01
78 | O=C(c1cc2ccccc2o1)c1nc2c(n1O)CCCCC2 | 9.78
79 | c1ccc(-c2noc(C3CCC3)n2)nc1 | 10.2
80 | O=C(COC(=O)CCSc1ccccc1Cl)NCc1ccco1 | 12.7
81 | CCNC(=O)CC1C(=O)N(c2ccc(F)cc2)C(=O)N1Cc1ccc(OC)cc1 (stereo not shown) | 2.24
82 | Cc1ccc(OCC(=O)N2CCOCC2)cc1C | 8.63
83 | Cc1onc(-c2ccccc2)c1C(=O)OCC(=O)Nc1cccc(Cl)c1 | -5.49
84 | COc1ccc2ccc(OC)c(/C=N/n3cnnc3)c2c1 | 13.1
85 | C/C(=N/NC(=O)c1ccoc1C)c1cccc(NC(=O)C2CC2)c1 | 2.45
86 | O=C(O)c1ccc(N2C(=O)CC(N3CCN(c4cccc(C(F)(F)F)c4)CC3)C2=O)cc1 (stereo not shown) | 5.87
87 | Cc1ccc(C)c(NC(=S)N(C)CCO)c1 | 12.2
88 | CC(C)(C)c1ccc(C(=O)NC2CCS(=O)(=O)C2)cc1 (stereo not shown) | 5.86
